The full ranking holds about 2,700 sequences; the median of “arbitrary fluorescence units” is about 4,100, and the highest 2% start at about 54,000. Some of the results follow.

80 sequences from the supplement of paper PMC10681739 can be followed below.

For this assay, the target named is T1, ETS1 (UniProt P14921).
T1 sequence: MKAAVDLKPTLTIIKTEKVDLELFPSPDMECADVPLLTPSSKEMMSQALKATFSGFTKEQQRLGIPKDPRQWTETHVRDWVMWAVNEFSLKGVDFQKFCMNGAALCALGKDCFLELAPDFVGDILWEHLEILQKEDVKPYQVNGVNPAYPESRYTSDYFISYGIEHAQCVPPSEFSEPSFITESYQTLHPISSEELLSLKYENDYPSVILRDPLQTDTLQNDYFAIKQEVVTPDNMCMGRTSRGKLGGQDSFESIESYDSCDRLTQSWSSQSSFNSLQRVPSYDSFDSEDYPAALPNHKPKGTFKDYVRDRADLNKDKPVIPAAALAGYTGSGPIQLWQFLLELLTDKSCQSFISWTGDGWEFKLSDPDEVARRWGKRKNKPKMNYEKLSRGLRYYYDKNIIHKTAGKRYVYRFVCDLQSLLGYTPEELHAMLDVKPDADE
Kind of assay: ETS1 binding intensity (PBM fluorescence) (arbitrary fluorescence units); higher = stronger binding. The settings on record: ETS1 concentration 10 nM. On the procedure: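 gcPBM on wild-type 36-bp genomic probes with two neighbouring ETS1 sites (4-24 bp apart). Recombinant human ETS1 (10 nM) was detected with anti-ETS1 antibody fluorescence. Values are medians over 3 replicate spots. The probes sit in constant array flanks that are not printed.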
AGGCCACACTTCCCCTCGGGCGGCTTCCTGTTTTGG came in with an ETS1 binding intensity of 7230.
Next, CCCCACCTCTTTCCTGTTGAGTAGGAAGTCCCCTTA: 4230; CTCGGTGGAAGGCGGATGGCGGATGTCCGAGTTAGT: 306.
TTGACTTCCTGCTTTAGATTTTTTGACTTCCTGAAC: the ETS1 binding intensity came out at 43000.
Regarding TGGCTGGAGGCAGGAAGTCAGGAAGGAGGCCACTGT, the ETS1 binding intensity was determined as 6930.
CGCCGCTTCCGGGCCCCGCCGCCTGCCGGAAGTGGA came in with an ETS1 binding intensity of 36900.
The sequence CGGACTTCCTGCTAGTTAGGCCCGCCTCTTCCGCAG displayed an ETS1 binding intensity of 36200.
On to GGAGATGTGCAGGAAGTGAACTTCCTGGGGCTGAGG, for which the ETS1 binding intensity amounted to 11400.
With GACAGGAAGCCAGCAGGCAGGGAGCCTGGGAAATGT, the ETS1 binding intensity worked out at 3140.
The result for GAAGAACGGAAGAGAGAGAGCTGCACTTCCGAACCG reads 1330.
In the case of AGCCTGTTTCCGCTCGGGCATTCTGGGAAGTGTAGT, the ETS1 binding intensity amounted to 13300.
The result for TATTCTCATCCGGGGTCACGTCGGTCTTCCGGGTGT reads 7280.
Take TCCTTAGAGCGGAAGTACGGCCGGAAGCCCGCCATA: the ETS1 binding intensity was determined as 15200.
The sequence GAGTTATGGCTTCCTGTACACATTCCTGCCATTTTA displayed an ETS1 binding intensity of 18400.
For the sequence CTGCAGGATGTTCTAACCATGAGCCCAGGATGTGGT, the ETS1 binding intensity turned out to be 1180.
ACTCCCACCCCACTTCCTGAGGAAATAGTTGTGGTA returned an ETS1 binding intensity of 6550.
For the sequence GGCTTTCAGCTTCCTGACTCACTTCCCCATTTTCTA, the ETS1 binding intensity was 4300.
In the case of CATTCAGGAAAAGCAGCTGGTTGACAGGAAGCCTGC, the ETS1 binding intensity came out at 242.
GCAGCTCGGATGTGGAGGGTGTAAGTTTCCGGTGGG registered an ETS1 binding intensity of 3080.
Sequence GCATATTTTTAGGATGTGGGAGGAAACAAGAGCAAA displayed an ETS1 binding intensity of 313.
With CCGGGAGAGCGGCGGAAGCAGGAAATGCTAAAGGTA, the ETS1 binding intensity stood at 6050.
The sequence GGCTCCTTCCTGTGTGGGCCCCTTGGTTTCCTGAGC came in with an ETS1 binding intensity of 16700.
The sequence GTCAGCTGGAGGAAGCGGAGTAGGAAGCGGCCGCGA displayed an ETS1 binding intensity of 329.
The sequence CTGCTGCCCTGCAGGAAGCGGATGCCAGCCTGGCGG displayed an ETS1 binding intensity of 1620.
As to GACTCGTGTTTCCGGGTATGACCGGAAATAGCGCAT, the ETS1 binding intensity turned out to be 19200.
Consider GCTGGCTTCCTGCCTTCACTGCACCGCTTCCGTAGG, for which the ETS1 binding intensity came out at 24200.
Take AGGCCCCGCCCGGAAAAACAACATCCTGGCTGCTAG: the ETS1 binding intensity amounted to 2310.
Take GCGATACGGCCAACTTCCTTCCGCGAAGCCCTCAGG: the ETS1 binding intensity came out at 2720.
Sequence CACCACCCGGAAAAGAACGACCGCTTCCGCACTCCC had an ETS1 binding intensity of 1790.
Next, AACCTCGATTTTCTTCCGCCATCCGGCTAAATAGTC: 946.
For CTGCTACAGGAAATCGCTTGTTATTTCCTGTAATGC, the ETS1 binding intensity turned out to be 10900.
In turn, CTGACACAGGGCAGGAAGCCGGAAGCCCACAGTCAT displayed an ETS1 binding intensity of 2920.
The sequence TAGCAAGTCACATCCCATGACATCCAGGATGCCCTC registered an ETS1 binding intensity of 389.
Take AGATACTCCATTTCCTTTCTAGGGAAGTCTGCCTGC: the ETS1 binding intensity was 12900.
In turn, TGGAGACTCACTTCCTAGATGAGGAAGTGAAGCTTA gave an ETS1 binding intensity of 2380.
On to TTCAGGAAACACCCACAGTGCTCAGACAGGAAATTC, for which the ETS1 binding intensity worked out at 718.
GAGCCCACATCCGGGAGAGGAGAGCGGAAGTGGCGT returned an ETS1 binding intensity of 23100.
Regarding CGCGGAACCCGGAAGTGGTCACGGAACTCGGCTGCG, the ETS1 binding intensity was 19600.
GTGCCTCCGGAAGAGCTCCAAACCCGGAAGCAGGCG: the ETS1 binding intensity was 4030.
For the sequence TTAGGTTCTCTTCCGCCCTAGCCGGAAGTCACGGTA, the ETS1 binding intensity was determined as 7640.
Next, TACCTCTGCTGAGGAAGCAACTTCCTGTACTGTGAA: 7310.
Sequence GGAGACAGGAACAAACTCTGTGTATCGGAAGCACAG registered an ETS1 binding intensity of 175.
TGCTAAACGGAAGTGGTTGTGGAGCATCCGGCTCTG gave an ETS1 binding intensity of 9960.
Next, TCAGCTTCCTGAGTAGCTGGGACCACAGGAAGGCAC: 10900; GTGGAGGAAACAAGTTGGTGGTTTCTACATCCTGCT: 556; TTCTGCTTCCTGTTTCTGGTACCCGCTTCCTGAGGG: 52200.
Sequence CATTTACCACTTCCTGAGGTCATTTCCTGTTTTCTT had an ETS1 binding intensity of 25800.
For the sequence CTACTACAGGAAGCTGATGAATCAGGAAGCTGCTCA, the ETS1 binding intensity worked out at 3750.
Sequence ACGGACACAGGGAAACGTCACAGGAAAGGGAGCCCA had an ETS1 binding intensity of 176.
Turning to TTCTGCCACAGGAAGTCAGCGCATCCGCGGGGCCGA, the ETS1 binding intensity worked out at 7570.
The result for GAACCGGCGCTTCCTTTCGCCGCTTCCGCCGCCATC reads 8630; that for CTGCGCCCGACGGCGGAAGTTCCGGGAGTGCCAAGT, 4510.
As to GGCTGGGAAATGTAGTCTGTGTGTCCAGGAAGTAAA, the ETS1 binding intensity was 248.
The sequence GCCCGGAACCGCTGCAGCAGCCCGAGCCGGAAGTGC gave an ETS1 binding intensity of 2500.
The result for TGCCACAAGGGAAGTAGTGTTACTTCCTGTCTCTGA reads 14200; that for CCCCATTTCCCGTAAGGCAACAGATGTTTCCTGTGC, 7010; that for CCTTAGATCCTGTTTATGCAGCCTGGTATCCTGTTG, 2510.
Next, AGTGAATTGCTTCCTGTGTCTGCTTCCTGAGCTTAT: 23300; AAGAAAAGAACGGATGAGAGAGGAAACGGTCGACGG: 442.
The result for CAACAATACAGGATGTCAGTACAGGAAATGCAGGGA reads 6360; that for GCATCTCAAAGAGGAAGCCAGGAAACACTCTCACCT, 539; that for TTAAGGCCGGAAACACGTCGGAGGCGGAAAACCCTG, 9120.
For the sequence TGCTGGAGATGAGGAAGTGAGGAAATACCCAGGGCG, the ETS1 binding intensity was 518.
The result for GCCTCACTTCCTGTGTTCAAGTGACAGGATGTGACA reads 70700.
The sequence CCCGGCGGATACAAGGGGGCTCCGCCATCCGCTCCC had an ETS1 binding intensity of 394.
As to AGCCCCACCATTTCCTGTGACTTCCTGGAGCCTGGC, the ETS1 binding intensity is 25600.
TGGCCTTTCACTTCCTGTCCCTTCCTCCAACCCCAA yielded an ETS1 binding intensity of 31600.
For AGGTGGCAGGAATGTGCTGTGGGCTTCCGGGACACA, the ETS1 binding intensity was 586.
For the sequence CTGGGCAATCTCACTTCCCTTCCTGCCTTCCTTGGA, the ETS1 binding intensity worked out at 3680.
In the case of AAAGTTTCCGCCCATACCATTGAATAACATCCTGTT, the ETS1 binding intensity was 19800.
Sequence CAGAGGAAATCGTATTTTCAGAAGCAACTTCCTTCA came in with an ETS1 binding intensity of 918.
The sequence CCTACAATTCCTGTTTTGGAGACCGCTTCCGGCAGC returned an ETS1 binding intensity of 3700.
GTGACTCCATTTCCTGCCTACACTTCCGCTAGCTCT had an ETS1 binding intensity of 33400.
CAGACACACGTCTTCCGGGTTTCCTACGAATCAGAC yielded an ETS1 binding intensity of 7820.
Next, GTCCTACCTTTCCGTTCTCAAGCAGGATATGCTGGG: 1730; AAGCTCCAGGAAACCCAAGCCCGCAGGATGCCAGAG: 274; CAGATTCCTCCGGAATATAGCGGAAGCGCGGGGTTG: 1170.
As for TGACCACTTCCTGGGGTAACTCCCCCGGAAATGCCC, the ETS1 binding intensity turned out to be 19000.
Next, TCAGATTCATGCTTCCTGTCCTTCCTGAAAACTGGC: 12200; TGAAAAGGAAATATAAAGATGCAGGAGGAAGGGGCA: 266.
